Data published in the supplement of paper PMC10300432.
Residue numbers refer to the chain shown, from its start. Recombinant human monoclonal antibodies (heavy:light variable regions). ELISA EC50 on the named antigen, from 10 µg/ml down; IC50 against spike pseudovirus on HT1080-ACE2 cells, 48 h; lower = stronger. Calls: IC50 above 1,000 ng/ml = non-neutralizing; EC50 above 1,000 ng/ml = non-binder.

B1: C5271 (protein)
chain 1: EVQLVESGGGLVQAGGSLRLSCAASEILVSRNYMTWVRQAPGMGLEWVSVLYAGGSAFYADSVKGRFTVSRDNSKNTLFLQMNSLRDEDTAVYYCARDLSVAGALDIWGQGTMVTVSS
chain 2: DIQLTQSPSFLSASVGDRVTITCRASQGISSYLAWYQQKPGKAPKLLIYAASTLQSGVPSRFSGSGSGTEFTLTISSLQPEDFATYYCQELNSYPLTFGGGTKVEIK
B2: C5266 (protein)
chain 1: EVQLVESGGDLVQPGGSLRLSCAASGFTFSSYWMHWVRQAPGKGLVWVSHINSDGSTTRYADSVKGRFTTSRDNAKNTLYLQMNSLRAEDTAVYYCANSLWLRGNFDYWGQGTLVTVSS
chain 2: NFMLTQPHSVSESPGKTVTISCTRSSGSIASNYVQWYQQRPGSAPTTVIYEDNQRPSGVPARFSGSIDSSSNSASLTISGLKTEDEADYYCQSYDSGNLYVFGTGTKVTVL
B3: C5323 (protein)
chain 1: QVQLVQSGAEVKKPGSSVKVSCKASGGTFSSYSITWVRQAPGQGLEWMGRIMPMLGIATYAQRFQGRVTITADTSTSTAYMELSSLRSEDTAIYYCAREGYYDSVTYPSLPTEKFDYWGQGTLVTVSS
chain 2: QSVLTQPPSVSGAPGQRVTISCTGTNSNIGAGYDVHWYQQLPGTVPKLLIYGNSNRPSGVPDRFSGSKSATSASLAITGLQAEDEADYYCQSYDSSLSASLFGGGTKLTVL
B4: C5325 (protein)
chain 1: QVQLVESGGGVVQPGRSLRLSCAASGFTFSSFAMHWVRQAPGKGLEWVAIISYDGVKEFYANSVKGRFTISRDNSKNTLFLQMNSLRAEDTAVYYCARDRQYIWGGYRSSLFYYGMDVWGQGTTVTVSS
chain 2: DIQMTQSPSSLSASVGDRVTIICQASQDINNYLNWYQQKPGKAPKLLIYDASDLETGVPSRFSGSGSGTDFTFTISSLQPEDIARYYCQQYDTLPFTFGGGTKVEI
B5: C5275 (protein)
chain 1: EVQLVESGGSLVQPGGSLRLSCAASGFTFSGYDMHWVRQATGRGLEWVSGISPGGDPFYRGSVKGRFTISRKNAKNSLYLQMNSLRAGDTAVYYCVRSHVSPLTGALDVWGKGTTVTVSS
chain 2: SYELTQPPSVSVAPGQTARITCGGDDLGSKNVHWYQQKPGQAPVLVVYDDSDRPSGIPERFSGSNSGNTATLTISRVEAGDEADYYCQVWDSSSDPWVFGGGTTLTVL
B6: C5276 (protein)
chain 1: QVQLVQSGAEVKQPGASVKLSCRASGYTFTDYYIHWVRQAPGQGLEWMGIINPSGGSRSYAQKFQGRVTMTRDTSTSTVYMELSSLRSEDTAVYFCAREGIVVAHGRFDSWGQGTLVTVSS
chain 2: B5 chain 2 with D25N, D26E, L27I, N31S, R76G, W97Y, G101T, T104K, L105V
B7: C5321 (protein)
chain 1: EVQLVESGGGLVQPGGSLRLSCAASGFTFSSYSMNWVRQAPGKGLEWVSYISTSRRTIYYADSVKGRFTISRDNAKNSLYLQMNSLRAEDTAVYYCARDWYPDYYDSSGYYPNIYFDYWGQGTLVTVSS
chain 2: EIVLTQSPGTLSLSPGERATLSCRASQTYSGNYLTWYQQKPGQAPRLLIYGASSRATGIPDRFSGSGSGTDFTLTISRLEPEDFAVYYCQQYGSSPPTFGGGTKVEIK
B8: C5274 (protein)
chain 1: EVQLVESGGGLIQPGGSLRLSCAASGLTVDSNYMSWVRQAPGKGLEWVSQIYSGGSSFYADSVKGRFTISRDSSKNTLYLQMDSLRAEDTAVYYCAREGAGSGSHGFFDFWGQGTLVTVSS
chain 2: DIQLTQSPSFLSASVGDRVTITCRASQGISNYIAWYQQKPGKAPNLLIYAASTLQSGVPSRFSGSGSGTEFTLTISSLQPEDFATYYCQQLNNYPPYTFGQGTKLEIK
B9: C5273 (protein)
chain 1: QVQLVETGGGVVQPGTSLRLSCVASGFTFRHYAMHWVRQAPGKGLEWVAVTSYDESHKYYVDSVKGRFTISRDDSKNTLYLQMNSLRPEDTAVYFCAKASGGPYCAAGDCYSPRDGYDYWGQGTLVTVSS
chain 2: DIQMTQSPSSVSASVGDRVTITCRASQGINSWLAWYQQKPGKAPKLLIYDASSLESGVPSRFSGSGSGTDFTLTISGLQPEDYATYYCQQANSFPFTFGPGTKVDIK
B10: C5269 (protein)
chain 1: EVQLVESGGGLVQPGGSLRLSCVASGFTLSDYSINWVRQAPGRGLEWISYISRAGRTIYSADSLKGRFTVSRDNPTNSLHLQMINLRAEDTAVYYCARGVPFHYWGQGTLVTVSS
chain 2: DIVMTQTPLSLPVTPGEPASISCRSSKSLLGRDDGNTYLDWFLQKPGQSPQLLIYTLSYRASGVADRFSGSGSGTDFTLKISRVEAEDVGVYYCMQRIEFPWTFGQGTKVEI
B11: C5272 (protein)
chain 1: EVQLVQSGAEVKKPGESLKISCKGSGYRFANYWIGWVRQMPGKGLEWMGIIHPGDSDTRYSPSFQGLVTISADKSISTAYLQWSSLKASDTAMYYCATMLIEGYSGYELYFYFDYWGQGTLVTVSS
chain 2: SYELTQPPSVSVSPGQTARITCSGDAFPTQYAYWYQQKPGQAPVLVIYKDSERPSGIPERFSGSSSGTTVTLTISGVQAEDEADYYCQSADSRLWVFGGGTKLTVL
B12: C5270 (protein)
chain 1: EVQLLESGGGLEQPGGSLRFSCAASGFTFSSYAMSWVRQAPGKGLEWVSVISGSGDSTYYADSVKGRFTISRDNSKNTLYLQMNSLRAEDTAVYYCAKSSYYYDSSVMRSLLVSSFDYWGQGTLVTVSS
chain 2: QSALTQPASVSGSPGQSITISCTGTSSDVGFYKYVSWYQQHPGKAPKLMLYEVSNRPSGVTDRFSGSKSGNTASLTISGLQAEDEADYYCSSYTSSSTYVVFGGGTKLTVL
B13: C5324 (protein)
chain 1: QVQLVESGGGVVQPGRSLRVSCAASGFTFRSYVMHWVRQAPGKGLEWVAGQLYDGSNQYYADSVKGRFTMSRDNSKNTLYLQMNSLRAEDTAVYYCAKQGGGTYCSGGSCYSSYFDYWGQGTLVTVSS
chain 2: DIQMTQSPSTLSASVGDRVTITCRASQSISSWLAWYQKKPGKAPKLLIYEAYNLESGVPSRFSGSGSGTEFTLTISSLQPDDFATYYCQQYNSYSTFGQGTKVEIK
B14: C5049 (protein)
chain 1: QVQLVQTGAEVKKPGASVKVSCKASGYTFSAYYIHWIRQAPGHGLEWMGWIDPKSGGTNFAQKFRGRVSMTIDTSISTAYMDLSRLRPDDTAVYYCARDSGNSWNDVDWFDPWGQGTLVTVS
chain 2: DIQMTQSPSSLSASVGDRVTIPCRASQNISRDLNWYQQRPGKAPKLLIYAASNLQSGVPSRFSGSGSGTDFTLTISNLQPEDFAIYYCQQYYSIPPYTFGQGTKLEIK
B15: C5322 (protein)
chain 1: EVQLVESGGGLVQPGGSLRLSCAASGFTFSTYDMHWVRQPTGKGLEWVSAIGTSGDTYYPGSVKGRFTISRENAKNSLYLQMNSLRAGDTAVYYCARVDYTGSCSGGTCRSYWYFDLWGQGTLVTVSS
chain 2: DIQMTQSPSALSASVGDRVTITCRASQTISSYLNWYQQKAGKAPKLLIYAASNLQSGVPSRFSGSGSGTDFTLTISSLQPEDFATYYCQQTYSFPPEYPFGQGTKLEI

molecular target: SARS-CoV-2 Omicron BA.1 spike pseudovirus; test: pseudovirus neutralization IC50; higher = weaker neutralization
Method: (§1)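 Single-round luciferase reporter pseudovirus mixed with antibody dilutions and put on HT1080-ACE2 clone 14 cells for 48 h; signal relative to no-antibody wells, four-parameter fit.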

Binder	pseudovirus neutralization IC50 [µg/mL]
B1	0.00167
B2	> 1
B3	0.0079
B4	> 1
B5	0.921
B6	0.911
B7	0.0502
B8	> 1
B9	> 1
B10	0.25
B11	> 1
B12	> 1
B13	> 1
B14	0.00697
B15	> 1

molecular target: SARS-CoV-2 Omicron BA.4/5 spike pseudovirus; test: as above
Method: as §1

Binder	pseudovirus neutralization IC50 [µg/mL]
B1	0.00339
B2	> 1
B3	0.709
B4	> 1
B5	> 1
B6	0.923
B7	0.026
B8	> 1
B9	> 1
B10	> 1
B11	> 1
B12	> 1
B13	> 1
B14	0.0179
B15	> 1

molecular target: SARS-CoV-2 Wuhan-Hu-1 spike pseudovirus; test: as above
Method: as §1

Binder	pseudovirus neutralization IC50 [µg/mL]
B1	0.00372
B2	0.0314
B3	0.022
B4	0.0149
B5	0.682
B6	0.752
B7	0.0547
B8	0.00297
B9	> 1
B10	0.00273
B11	> 1
B12	0.0309
B13	> 1
B14	0.0032
B15	> 1

molecular target: SARS-CoV-2 Wuhan-Hu-1 spike receptor-binding domain; test: ELISA binding EC50; higher = weaker binding; ELISA of recombinant human antibody on coated antigen, from 10 µg/ml in fourfold dilutions; four-parameter fit.

Binder	ELISA binding EC50 [µg/mL]
B1	0.00286
B2	0.00427
B3	0.00496
B4	0.00496
B5	0.00544
B6	0.0043
B7	0.00315
B8	0.00632
B9	0.0042
B10	0.00501
B11	0.00791
B12	0.00329
B13	0.00409
B14	0.00322
B15	0.00351
